# In the supplement of paper PMC8728848:
# Some of the results follow.
# Assays:
# Assay in all cases: glycan array binding signal (z-score within array); higher = stronger binding
# Conditions in all cases: glycan notation: IUPAC condensed, linker removed
# Gal(b1-6)Gal = target: Gal(b1-6)Gal
# Procedure, shortened: (§1)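 From the Consortium for Functional Glycomics database, 3228 arrays were curated, keeping only those whose protein sequence was available. Binding is given as a within-array Z-score averaged across arrays sharing a protein sequence and across linkers. Negative Z-scores can be read as non-binding.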
# Gal3S(b1-3)GalNAc = target: Gal3S(b1-3)GalNAc
# Procedure, shortened: as §1
# Gal3S(b1-3)GlcNAc = target: Gal3S(b1-3)GlcNAc
# Procedure, shortened: as §1
# [1] = target: Gal3S(b1-3)[Fuc(a1-4)]GlcNAc
# Procedure, shortened: as §1
# Gal3S(b1-4)Glc = target: Gal3S(b1-4)Glc
# Procedure, shortened: as §1
# Gal3S(b1-4)Glc6S = target: Gal3S(b1-4)Glc6S
# Procedure, shortened: as §1
# Gal3S(b1-4)GlcNAc = target: Gal3S(b1-4)GlcNAc
# Procedure, shortened: as §1
# Gal3S(b1-4)GlcNAc6S = target: Gal3S(b1-4)GlcNAc6S
# Procedure, shortened: as §1
# [2] = target: Gal3S(b1-4)[Fuc(a1-3)]Glc
# Procedure, shortened: as §1
# [3] = target: Gal3S(b1-4)[Fuc(a1-3)]Glc6S
# Procedure, shortened: as §1
# [4] = target: Gal3S(b1-4)[Fuc(a1-3)]GlcNAc
# Procedure, shortened: as §1
# [5] = target: Gal3S(b1-4)[Fuc(a1-3)]GlcNAc6S
# Procedure, shortened: as §1
# Gal3S4S(b1-4)GlcNAc = target: Gal3S4S(b1-4)GlcNAc
# Procedure, shortened: as §1
# Gal3S6S(b1-4)GlcNAc = target: Gal3S6S(b1-4)GlcNAc
# Procedure, shortened: as §1
# Gal3S6S(b1-4)GlcNAc6S = target: Gal3S6S(b1-4)GlcNAc6S
# Procedure, shortened: as §1
# Gal4S(b1-4)GlcNAc = target: Gal4S(b1-4)GlcNAc
# Procedure, shortened: as §1
# Gal4S6S(b1-4)GlcNAc = target: Gal4S6S(b1-4)GlcNAc
# Procedure, shortened: as §1
# Gal6P(b1-4)GlcNAc = target: Gal6P(b1-4)GlcNAc
# Procedure, shortened: as §1
# Gal6S(b1-3)GlcNAc = target: Gal6S(b1-3)GlcNAc
# Procedure, shortened: as §1
# Gal6S(b1-3)GlcNAc6S = target: Gal6S(b1-3)GlcNAc6S
# Procedure, shortened: as §1
# Gal6S(b1-4)Glc = target: Gal6S(b1-4)Glc
# Procedure, shortened: as §1
# Gal6S(b1-4)Glc6S = target: Gal6S(b1-4)Glc6S
# Procedure, shortened: as §1
# Gal6S(b1-4)GlcNAc = target: Gal6S(b1-4)GlcNAc
# Procedure, shortened: as §1
# Gal6S(b1-4)GlcNAc6S = target: Gal6S(b1-4)GlcNAc6S
# Procedure, shortened: as §1
# GalNAc(a1-3)Gal = target: GalNAc(a1-3)Gal
# Procedure, shortened: as §1
# GalNAc(a1-3)GalNAc = target: GalNAc(a1-3)GalNAc
# Procedure, shortened: as §1
# [6] = target: GalNAc(a1-3)GalNAc(a1-3)Gal(a1-4)Gal(b1-4)GlcNAc
# Procedure, shortened: as §1
# [7] = target: GalNAc(a1-3)GalNAc(b1-3)Gal(a1-4)Gal(b1-4)Glc
# Procedure, shortened: as §1
# [8] = target: GalNAc(a1-3)GalNAc(b1-3)Gal(a1-4)Gal(b1-4)GlcNAc
# Procedure, shortened: as §1
# GalNAc(b1-3)Gal = target: GalNAc(b1-3)Gal
# Procedure, shortened: as §1
# [9] = target: GalNAc(b1-3)Gal(a1-4)Gal(b1-4)GlcNAc
# Procedure, shortened: as §1
# [10] = target: GalNAc(b1-3)Gal(a1-4)Gal(b1-4)GlcNAc(b1-3)Gal(b1-4)Glc
# Procedure, shortened: as §1
# [11] = target: GalNAc(b1-3)Gal(a1-6)Gal(b1-4)Glc
# Procedure, shortened: as §1
# GalNAc(b1-3)GalNAc = target: GalNAc(b1-3)GalNAc
# Procedure, shortened: as §1
# GalNAc(b1-3)GlcNAc = target: GalNAc(b1-3)GlcNAc
# Procedure, shortened: as §1
# GalNAc(b1-4)Gal(b1-4)Glc = target: GalNAc(b1-4)Gal(b1-4)Glc
# Procedure, shortened: as §1
# GalNAc(b1-4)GlcNAc = target: GalNAc(b1-4)GlcNAc
# Procedure, shortened: as §1
# [12] = target: GalNAc(b1-4)GlcNAc(b1-2)Man
# Procedure, shortened: as §1
# [13] = target: GalNAc(b1-4)GlcNAc(b1-2)Man(a1-3)[GalNAc(b1-4)GlcNAc(b1-2)Man(a1-6)]Man(b1-4)GlcNAc(b1-4)GlcNAc
# Procedure, shortened: as §1
# [14] = target: GalNAc(b1-4)GlcNAc(b1-3)GalNAc(b1-4)GlcNAc
# Procedure, shortened: as §1
# GalNAc(b1-4)GlcNAc6S = target: GalNAc(b1-4)GlcNAc6S
# Procedure, shortened: as §1
# GalNAc(b1-6)GalNAc = target: GalNAc(b1-6)GalNAc
# Procedure, shortened: as §1
# GalNAc3S(b1-4)GlcNAc = target: GalNAc3S(b1-4)GlcNAc
# Procedure, shortened: as §1
# GalNAc3S(b1-4)GlcNAc3S = target: GalNAc3S(b1-4)GlcNAc3S
# Procedure, shortened: as §1
# [15] = target: GalNAc3S(b1-4)[Fuc(a1-3)]GlcNAc
# Procedure, shortened: as §1
# GalNAc4S6S(b1-4)GlcNAc = target: GalNAc4S6S(b1-4)GlcNAc
# Procedure, shortened: as §1
# GalNAc6S(b1-4)GlcNAc = target: GalNAc6S(b1-4)GlcNAc
# Procedure, shortened: as §1
# Glc(a1-4)Glc = target: Glc(a1-4)Glc
# Procedure, shortened: as §1
# [16] = target: Glc(a1-4)Glc(a1-4)Glc(a1-4)Glc
# Procedure, shortened: as §1
# Glc(a1-6)Glc(a1-6)Glc = target: Glc(a1-6)Glc(a1-6)Glc
# Procedure, shortened: as §1
# [17] = target: Glc(a1-6)Glc(a1-6)Glc(a1-6)Glc
# Procedure, shortened: as §1
# Glc(b1-4)Glc = target: Glc(b1-4)Glc
# Procedure, shortened: as §1
# Glc(b1-6)Glc = target: Glc(b1-6)Glc
# Procedure, shortened: as §1
# GlcA(b1-3)Gal = target: GlcA(b1-3)Gal
# Procedure, shortened: as §1
# GlcA(b1-3)GlcNAc = target: GlcA(b1-3)GlcNAc
# Procedure, shortened: as §1
# GlcA(b1-6)Gal = target: GlcA(b1-6)Gal
# Procedure, shortened: as §1
# [18] = target: GlcA3S(b1-3)Gal(b1-4)GlcNAc(b1-2)Man
# Procedure, shortened: as §1
# [19] = target: GlcA3S(b1-3)Gal(b1-4)GlcNAc(b1-3)Gal(b1-4)Glc
# Procedure, shortened: as §1
# [20] = target: GlcNAc(a1-3)Gal(b1-4)GlcNAc
# Procedure, shortened: as §1
# [21] = target: GlcNAc(a1-4)Gal(b1-3)GlcNAc
# Procedure, shortened: as §1
binder,measurement,setting,value
"Epa1-NP (Candida glabrata), Q6VBJ0 (protein) MILNPALFLNKCVCIYTTLILLLLTNGGYATSSNDISLASKDPTTFPLGCSPDITTPKKGLSMELYSYDFRKKGSYPCWDAAYLDPNYPRTGYKSHRLLAKVDGVTGNINFYYHATKGCTPQLGHLPASYNYPKPLTMTNFTMLLYGYFRPKVTGFHTFTISADDLLFVNFGAGNAFDCCRRDSSADHFGNYQAYAIWGSKTAKDELTVHLDAGVYYPIRLFYNNREYDGALSFTFKTESNENTVSDFSEYFFSLDDTEEGCPGLISYDSSCASVKTSKIIGIDYHTETPNENLVPITKTIYHLGIPCTGTTTTPLCGSGFYDPLANKCVTINTSSTSSVTKTTSHTTSKEVSFHSSISSQKTLIPKSIPSPYGPIKSQSIPTEMETSSEISSSEYAFSDVISTPSHSPYTKKHSSLNSSSYTSTVIHSLTSYSISQGIFSTSLSEQNITSKSSTDKFSTATSMSNNITQSSIIISQFSTNNENYTTTSMHTSSDKISTETLNNSISTTTSILFSNSSTILKNNTTIISSDKDTHYHPVNPTIVCSTNKTEIICASITQPSISNSNNHWSSSVLKFNSTTVRSTLPSSAGSNETSINVPFSSSTESNTSTSSTSTSNSKMVRSTLPSSAGSNETSISVPFSSSTESNTSTSSTSTSNSKMVRSTLPSSAGSNETSINVPFSSSTESNTSTSSTSTSNSKTVRSTPFSSAGIIMTSLSQRNNKSASSYASSNSKCYNTADSCRKVHSTPSYLLTSSYTSEGVDYDCSLVSTKLKINDTNCVNNKHTTKSCLKTSVTTTIPTLEIKTARKSSSNTIGLHSYPTSSPNKSISSAPIIGYISSFKTIKTASPSYQTSDLTTITTITSLNNPGSTAVENTHESNDKSRKTSSNDISSKHSVIKETKDAVESSNKSHQTNTLKCSSIIIASSSHNSYESLGGTTLTLTLSKVYSPQNNDTLPFLEISEVNPSRTVLPESSKMMQYLTSTEERNKTARNTIATNIVSISTFHFEGEGNAIRMGYTQLLLMLIGIIVMNIGT",glycan array binding signal (z-score),Gal(b1-6)Gal,0.16
same,glycan array binding signal (z-score),Gal3S(b1-3)GalNAc,-0.313
same,glycan array binding signal (z-score),Gal3S(b1-3)GlcNAc,-0.296
same,glycan array binding signal (z-score),[1],-0.293
same,glycan array binding signal (z-score),Gal3S(b1-4)Glc,-0.328
same,glycan array binding signal (z-score),Gal3S(b1-4)Glc6S,-0.32
same,glycan array binding signal (z-score),Gal3S(b1-4)GlcNAc,-0.335
same,glycan array binding signal (z-score),Gal3S(b1-4)GlcNAc6S,-0.293
same,glycan array binding signal (z-score),[2],-0.286
same,glycan array binding signal (z-score),[3],-0.129
same,glycan array binding signal (z-score),[4],-0.295
same,glycan array binding signal (z-score),[5],-0.351
same,glycan array binding signal (z-score),Gal3S4S(b1-4)GlcNAc,-0.285
same,glycan array binding signal (z-score),Gal3S6S(b1-4)GlcNAc,-0.33
same,glycan array binding signal (z-score),Gal3S6S(b1-4)GlcNAc6S,-0.242
same,glycan array binding signal (z-score),Gal4S(b1-4)GlcNAc,-0.333
same,glycan array binding signal (z-score),Gal4S6S(b1-4)GlcNAc,-0.306
same,glycan array binding signal (z-score),Gal6P(b1-4)GlcNAc,-0.287
same,glycan array binding signal (z-score),Gal6S(b1-3)GlcNAc,-0.227
same,glycan array binding signal (z-score),Gal6S(b1-3)GlcNAc6S,0.054
same,glycan array binding signal (z-score),Gal6S(b1-4)Glc,0.574
same,glycan array binding signal (z-score),Gal6S(b1-4)Glc6S,0.73
same,glycan array binding signal (z-score),Gal6S(b1-4)GlcNAc,0.471
same,glycan array binding signal (z-score),Gal6S(b1-4)GlcNAc6S,0.854
same,glycan array binding signal (z-score),GalNAc(a1-3)Gal,-0.301
same,glycan array binding signal (z-score),GalNAc(a1-3)GalNAc,-0.306
same,glycan array binding signal (z-score),[6],-0.273
same,glycan array binding signal (z-score),[7],-0.292
same,glycan array binding signal (z-score),[8],-0.289
same,glycan array binding signal (z-score),GalNAc(b1-3)Gal,-0.277
same,glycan array binding signal (z-score),[9],-0.325
same,glycan array binding signal (z-score),[10],-0.299
same,glycan array binding signal (z-score),[11],-0.294
same,glycan array binding signal (z-score),GalNAc(b1-3)GalNAc,-0.293
same,glycan array binding signal (z-score),GalNAc(b1-3)GlcNAc,-0.289
same,glycan array binding signal (z-score),GalNAc(b1-4)Gal(b1-4)Glc,-0.286
same,glycan array binding signal (z-score),GalNAc(b1-4)GlcNAc,-0.317
same,glycan array binding signal (z-score),[12],-0.279
same,glycan array binding signal (z-score),[13],-0.258
same,glycan array binding signal (z-score),[14],-0.291
same,glycan array binding signal (z-score),GalNAc(b1-4)GlcNAc6S,-0.288
same,glycan array binding signal (z-score),GalNAc(b1-6)GalNAc,-0.293
same,glycan array binding signal (z-score),GalNAc3S(b1-4)GlcNAc,-0.281
same,glycan array binding signal (z-score),GalNAc3S(b1-4)GlcNAc3S,-0.283
same,glycan array binding signal (z-score),[15],-0.287
same,glycan array binding signal (z-score),GalNAc4S6S(b1-4)GlcNAc,-0.285
same,glycan array binding signal (z-score),GalNAc6S(b1-4)GlcNAc,-0.284
same,glycan array binding signal (z-score),Glc(a1-4)Glc,-0.326
same,glycan array binding signal (z-score),[16],-0.294
same,glycan array binding signal (z-score),Glc(a1-6)Glc(a1-6)Glc,-0.338
same,glycan array binding signal (z-score),[17],-0.296
same,glycan array binding signal (z-score),Glc(b1-4)Glc,-0.318
same,glycan array binding signal (z-score),Glc(b1-6)Glc,-0.339
same,glycan array binding signal (z-score),GlcA(b1-3)Gal,-0.349
same,glycan array binding signal (z-score),GlcA(b1-3)GlcNAc,-0.271
same,glycan array binding signal (z-score),GlcA(b1-6)Gal,1.04
same,glycan array binding signal (z-score),[18],-0.283
same,glycan array binding signal (z-score),[19],-0.287
same,glycan array binding signal (z-score),[20],-0.317
same,glycan array binding signal (z-score),[21],-0.292
